# PubChem BioAssay AID445 (National Center for Advancing Translational Sciences (NCATS), 2006)
# Out of some 110,000 compounds screened, about 40 (0.04%) were called active. Inconclusive means that the source gave no clear call. Such entries were picked first, then a sample of the others. Calls come from the whole dose curve; as a rule, active = well fitted curve in the direction sought with a large enough effect in the signal ratio (not every such curve was filed as active); inconclusive = small, poorly fitted or top-dose-only effect, or a change in a side signal; inactive = flat fitted curve, though single readings scatter; the % refers to the signal ratio. Potencies of inconclusive entries are doubtful fits and often do not repeat.
# Test: IkB Signaling;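 for IkBa stabilization activation: 0% = basal untreated cells and 100% = reference inhibitor full response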
# Conditions: ABC-DLBCL IkBa-CBG/CBR dual luciferase ratio (green luciferase fused to IkBa over red control in OCI-Ly3 lymphoma cells), 4 h; IkBa stabilization activation: at 57.1 µM (top of the series), scaled: untreated 0%, proteasome inhibitor 100% unless noted
# How it was run: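 Luminescence ratio of IκBα-fused green versus native red beetle luciferase in OCI-Ly3 cells, 4 h post-doxycycline with compound; red signal alone, scaled from basal (0%) to zero light (-100%), flagged nonspecific or cytotoxic effects.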
# Potency is the fitted concentration of half-maximal effect.
SMILES,IkBa stabilization activation,Potency
CC1=N[C@@](C)(COC(=O)[C@]2(C)N[C@](C)(CO)CO2)COC1=O,"inactive: 1.44% [at 11.4 µM, scaled: untreated 0%, proteasome inhibitor 100%]",
COC(=O)c1cccc(-n2c(CCC(=O)O)ccc2-c2ccc(OC)cc2)c1,inactive,
CCOC(=O)c1cc(-c2ccccc2)n(CCCC(=O)Nc2ccc(C(C)C)cc2)c1C,inconclusive: 0.375% [signal inhibitor],
Cc1ccc(Cl)cc1NC(=O)C(C)n1nnc2sc(-c3ccccc3)cc2c1=O (stereo unspecified),inactive,
COc1cccc(CNC(=O)CCc2cn(Cc3ccccc3Cl)c3ccccc23)c1,inactive,
CCCCOc1ccc(S(=O)(=O)Nc2ccc(-c3ccc(N4CCCCCC4)nn3)cc2)cc1,inconclusive: 2.52% [signal inhibitor],
O=C1CC(C(=O)Nc2ncccn2)C(c2ccccc2)O1 (stereo unspecified),inactive,
COc1ccc(Cn2c(SCc3ccc(C(=O)NC4CCCC4)cc3)nc3ccncc32)cc1,inconclusive: 2.47% [signal inhibitor],
CCOC(=O)c1c(C)oc2ncnc(N3CCN(c4ccccc4OC)CC3)c12,inconclusive: 1.17% [signal inhibitor],
Cc1nc2cnc(N(C)C)nc2n(C[C@H]2CCCO2)c1=O,"inactive: 0.16% [at 11.4 µM, scaled: untreated 0%, proteasome inhibitor 100%]",
CCCN1CCN(CCNC(=O)Nc2ccc(OC)cc2OC)CC1,inconclusive: 0.899% [signal inhibitor],
O=C(CC1C(=O)N(c2ccccc2)C(=O)N1CCC1=CCCCC1)Nc1ccc(F)cc1 (stereo unspecified),inconclusive: -1.98% [signal inhibitor],
COc1ccc(C(=O)Nc2nc3ccccc3[nH]2)cc1OC,inconclusive: 15.5% [signal inhibitor],
Cc1ccccc1NC(=O)CSc1nc(-c2ccccc2C)nc2cc(=O)[nH]n12,inconclusive: 0.997% [signal inhibitor],
COc1ccccc1N(CC(=O)NCCSCc1ccccc1)S(=O)(=O)c1ccc(C)cc1,inconclusive: 11.5% [signal inhibitor],
CCc1ccc(C(=O)c2cn(CC(=O)Nc3ccc(F)cc3)c3ccc(OC)cc3c2=O)cc1,inconclusive: 4.07% [signal inhibitor],
O=C1CN(C(=O)Cc2ccc(F)cc2)C(c2ccccc2)c2cc(Cl)ccc2N1 (stereo unspecified),inactive,
COc1ccc(NC(=O)Cn2c(=O)n(C(C)C)c(=O)c3oc4ccccc4c32)cc1Cl,inconclusive: -0.767% [signal inhibitor],
COc1ccc(C(=O)Cn2nnc(-c3ccccc3NC(=O)c3ccco3)n2)cc1,inconclusive: 1.53% [signal inhibitor],
Nc1nc2ccc(OC(F)(F)F)cc2s1,inactive,
C=CCn1c(=N)c(C(=O)NCCCOC)cc2c(=O)n3cccc(C)c3nc21,inactive,
CCN(CC)C(=O)Sc1cccc2cccnc12,inactive,
Cc1cccc(OCC(=O)OCc2cc(=O)n3nc(C4CCCCC4)sc3n2)c1,inactive,
O=C(C1CCCN(S(=O)(=O)Cc2ccccc2)C1)N1CCc2ccccc21 (stereo unspecified),inconclusive: 1.23% [signal inhibitor],

SMILES,IkBa stabilization activation,Potency
COc1ccc(C(=O)COC(=O)c2cccc(NC(=O)c3ccc(OC)c(OC)c3)c2)cc1,inconclusive: 18.4% [signal inhibitor],
COc1ccc(-c2cn3c4c(sc3n2)CCCC4)cc1,inactive,
COc1ccc(C(=O)c2cn(Cc3ccc(F)cc3)c3ccc(C)cc3c2=O)cc1,inconclusive: 0.697% [signal inhibitor],
COc1cccc(C(=O)/C=C/Nc2cc(C)ccc2O)c1,inconclusive: 10% [signal inhibitor],
Cc1ccc(CNC(=O)CCc2c(C)nn(-c3ccc(N4CCCCC4)nn3)c2C)cc1,inconclusive: 1.84% [signal inhibitor],
Cc1csc2nc(-c3cccc(NC(=O)c4ccccc4Cl)c3)cn12,inactive,
Cc1ccc(-c2nc3ccccn3c2Nc2ccc3c(c2)OCO3)cc1,,inconclusive: 25.1 µM [signal inhibitor]
O=C(NC1CCCCCC1)C1CCN(C(=O)N2CCOc3ccccc32)CC1,inconclusive: 1.71% [signal inhibitor],
O=C(O)C1CCCCC1C(=O)Nc1ccccc1Nc1ccccc1 (stereo unspecified),inconclusive: 10.8% [signal inhibitor],
c1csc(CNc2ccnc(-c3ccc4c(c3)OCO4)n2)c1,"inactive: 2.31% [at 11.4 µM, scaled: untreated 0%, proteasome inhibitor 100%]",
COc1ccc(C2c3c(-c4c(C)cc(C)cc4O)n[nH]c3C(=O)N2Cc2ccco2)cc1 (stereo unspecified),inconclusive: 6.46% [signal inhibitor],
CCOC(=O)c1c(NC(=O)c2ccccc2Cl)sc2c1CCCC2,inconclusive: 1.13% [signal inhibitor],
CCOCCOC(=O)C1=C(C)Nc2ccc(C)cc2S1,inconclusive: 5.17% [signal inhibitor],
CCOC(=O)c1cccc(NC(=O)c2ccc3c(Cl)c4c(nc3c2)CCC4)c1,inactive,
CCn1c(SCC(=O)Nc2nc3ccc(C)cc3s2)nc2c(c1=O)SC(C)C2 (stereo unspecified),inconclusive: 5.48% [signal inhibitor],
COc1cccc(-c2nc(CS(=O)(=O)CC(=O)NCc3ccc(C)cc3)c(C)o2)c1,inconclusive: 2.52% [signal inhibitor],
CCOc1cc(-c2nc3c(c(CC)nn3-c3ccccc3)c3cc(OC)c(OC)cc23)ccc1O,inactive,
Cc1ccc(CN2C(=O)C(O)(c3c[nH]c4ccccc34)c3cc(Cl)ccc32)cc1 (stereo unspecified),inconclusive: -3.3% [signal inhibitor],
Cc1ccc2c(c1)NC(c1cccnc1)=NC(c1ccc(F)cc1)=N2,inconclusive: -0.294% [signal inhibitor],
CCN(CC)S(=O)(=O)c1ccc(C(=O)Nc2ccc3c(c2)OCCO3)cc1,inactive,
O=C(CSc1nc2cc(Cl)ccc2s1)NC(=O)NCc1ccco1,,"inconclusive: 25.1 µM [signal inhibitor, partial curve]"
Cc1ccc(-n2c(=O)c3ccc(C(=O)NCc4ccccc4Cl)cc3n(Cc3ccccc3F)c2=O)cc1,inactive,
N=c1c(S(=O)(=O)c2ccccc2)cc2c(=O)n3ccccc3nc2n1Cc1ccco1,,"inconclusive: 12.6 µM [rising, partial curve]"
CCc1ccc(CN(Cc2cn[nH]c2-c2ccc(OC)cc2)C(=O)Nc2ccc(C)c(F)c2)cc1,inconclusive: 3.68% [signal inhibitor],

SMILES,IkBa stabilization activation,Potency
N#Cc1cn(CC(=O)NCCc2c[nH]c3ccccc23)c2ccccc12,inconclusive: 1.17% [signal inhibitor],
Nc1cccc(-c2cn3ccsc3n2)c1,inactive,
Cc1ccc(NC(=O)c2oc3ccccc3c2NC(=O)c2ccccc2C)cc1,inconclusive: 1.25% [signal inhibitor],
O=C(NC1CC(=O)N(c2cccc(F)c2)C1)C1CC1 (stereo unspecified),inconclusive: -1.89% [signal inhibitor],
COc1cc(C(=O)O)ccc1OCC(=O)N1CCOCC1,inactive,
CCOC(=O)c1c(-c2ccccc2)oc2ccc(NS(=O)(=O)c3ccc(C)cc3C)cc12,inconclusive: 13.6% [signal inhibitor],
Cc1nc(C)c(-c2ccc(SCC(=O)Nc3ccc(F)c(F)c3)nn2)s1,inconclusive: -0.39% [signal inhibitor],
O=c1c2cc3c(cc2nc2sc(Nc4ccc(F)c(Cl)c4)nn12)OCO3,inactive,
COc1cc(/C=C(\C#N)c2nc3ccccc3n2C)cc(OC)c1OC,,"inconclusive: 39.8 µM [signal inhibitor, single point]"
Cc1ccc(NC(=O)c2cc(S(=O)(=O)N3CCCC(C)C3)cn2C)c(Br)c1 (stereo unspecified),inconclusive: 4.32% [signal inhibitor],
O=C(OCC(=O)c1ccco1)c1ccc2ncsc2c1,inactive,
CCN1CCN(c2oc(/C=C/c3ccccc3OC)nc2C#N)CC1,inconclusive: 0.0782% [signal inhibitor],
Cn1c(-c2ccc(CN3CCCCC3)o2)nc2ccccc21,inactive,
O=C(CSc1nc2c(oc3ccccc32)c(=O)n1-c1ccccc1F)Nc1ccccc1,inconclusive: 4.71% [signal inhibitor],
O=c1c2ccccc2nc2ccc(NCc3ccco3)nn12,,"inconclusive: 6.31 µM [rising, full curve]"
Cc1ccc(CN2CCSc3ccc(C(=O)N4CCN(c5cc(C)ccc5C)CC4)cc32)cc1,inconclusive: 0.85% [signal inhibitor],
CCOC(=O)c1c(S(=O)(=O)N2CCCC(C(=O)N3CCN(c4cccc(C)c4C)CC3)C2)c(C)n(C)c1C (stereo unspecified),inconclusive: -2.39% [signal inhibitor],
COc1cc(C2CC(=O)c3c([nH]c(C(=O)OCCOC(C)C)c3C)C2)cc(OC)c1OC (stereo unspecified),inconclusive: -2.21% [signal inhibitor],
Cc1ccc(Nc2c3c(nc4nncn24)CCC3)cc1C,inactive,
CCOc1cc(S(=O)(=O)n2ccnc2C(C)C)ccc1Cl,inconclusive: 2.9% [signal inhibitor],
Cc1ccccc1NC(=O)CCn1cnc2onc(-c3ccc(F)cc3)c2c1=O,inconclusive: 2.14% [signal inhibitor],
O=C(c1ccco1)N1CCC2(CCCN(Cc3ccncc3)C2)CC1,"inactive: 0.581% [at 11.4 µM, scaled: untreated 0%, proteasome inhibitor 100%]",
Cc1ccc(N2C(=O)[C@@H]3[C@H](C2=O)C2c4ccccc4C=CN2[C@@H]3C(=O)c2ccco2)cc1 (stereo partly specified),inconclusive: 9.64% [signal inhibitor],
